The other results are listed elsewhere or left out. The main result of the screen is listed elsewhere. These columns were measured beside it and carry no call.
Biological target: GTPase KRas (Homo sapiens) (UniProt P01116)
Assay: Fragment capture on engineered cysteines, share of protein labelled (AID 2202238)
Parameters: protein at 5 µM with 500 µM competing thiol for 1.5 h
Details: KRAS G12D cysteine mutants, disulfide tethering, MALDI-TOF labeling, stronger effect = higher value, fragment at 500 µM
[1] = measured here: G60C mutant labeling
[2] = measured here: G75C mutant labeling
[3] = measured here: H94C mutant labeling
[4] = measured here: I36C mutant labeling
[5] = measured here: L120C mutant labeling
[6] = measured here: M67C mutant labeling
[7] = measured here: M72C mutant labeling
[8] = measured here: N26C mutant labeling
[9] = measured here: N86C mutant labeling
[10] = measured here: P121C mutant labeling
[11] = measured here: S122C mutant labeling
[12] = measured here: S136C mutant labeling

Sequence of UniProt P01116 (P01116 whole entry, looked up, the tested form may be a part): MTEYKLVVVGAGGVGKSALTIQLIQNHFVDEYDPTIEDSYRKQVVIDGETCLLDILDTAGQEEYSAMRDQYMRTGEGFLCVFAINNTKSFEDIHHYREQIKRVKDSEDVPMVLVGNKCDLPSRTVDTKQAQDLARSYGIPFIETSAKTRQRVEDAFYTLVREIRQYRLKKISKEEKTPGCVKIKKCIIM

Structure (SMILES) | percent labeling [1] [%] | percent labeling [2] [%] | percent labeling [3] [%] | percent labeling [4] [%] | percent labeling [5] [%] | percent labeling [6] [%] | percent labeling [7] [%] | percent labeling [8] [%] | percent labeling [9] [%] | percent labeling [10] [%] | percent labeling [11] [%] | percent labeling [12] [%]
CC1(C)Cc2ccc(C(=O)NCCS)c(O)c2O1 | 26.6 | 13.4 | 18.7 | 11.1 | 51.3 | 17 | 46.7 | 32 | 21.1 | 19.5 | 20 | 31.1
CN(Cc1nc2ccccc2[nH]1)C1CCN(C(=O)CCS)CC1 |  | 18.1 | 32.5 | 53.7 | 28.4 | 82 | 30.6 |  | 30.2 | 30.6 | 29.8 | 59.4
Cc1nc2ccccc2c(C)c1C(=O)NCCS | 44.2 | 23 | 32.7 | 28.2 | 27.4 | 31.9 | 33.7 | 51.1 | 33 | 54.6 | 25.3 | 51.9
O=C(CCS)NCc1nnc2n1CCNC2=O |  | 3.6 | 14.7 | 20.2 | 26.2 | 20.5 | 3.2 |  | 13.5 | 24.9 | 29 | 35.3
COc1cccc2c(=O)c(C)c(C(=O)NCCS)[nH]c12 | 28.5 | 17.7 | 27.9 | 26.4 | 29.4 | 28.2 | 44 | 53 | 29.6 | 79.3 | 27.8 | 46.7
O=C(CCS)NCCn1nc2ccccn2c1=O |  | 6.6 | 20.2 | 33.8 | 26.6 | 28.9 | 4.6 |  | 17 | 29.5 | 29.7 | 46.8
O=C(CCS)Nc1cn(Cc2ccccc2)nn1 |  | 10.4 | 13.3 | 34.3 | 17.4 | 28.2 | 31.6 |  | 5.7 | 17.9 | 20.4 | 37.4
O=C(Cn1ncc2ccccc2c1=O)NCCS | 35.6 | 17.3 | 27.8 | 29.9 | 54.3 | 35.5 | 34.8 | 36.6 | 29.3 | 34.9 | 32.4 | 44.4
O=C(CCS)NCCc1cccc(C(F)(F)F)n1 |  | 14.2 | 41 | 44.1 | 37.7 | 49.2 | 35.7 |  | 38.9 | 41.8 | 42.5 | 56
CC(CC(=O)NCCS)Cc1ccc(Cl)cc1 (configuration not stated) | 36.8 | 13.3 | 15.9 | 10.7 | 21.2 | 13.1 | 22.3 | 39.7 | 6.4 | 15.1 | 10.5 | 16.2
O=C(CCS)NCCc1nc2ccc(F)cc2[nH]1 |  | 14.5 | 30.4 | 50.3 | 32.2 | 43.2 | 33 |  | 21.4 | 35.2 | 27.5 | 50.5
O=C(CCS)Nc1cnc(N2CCOCC2)c(Br)c1 |  | 15.1 | 22.4 | 18.7 | 21.4 | 18 | 46.6 |  | 8.9 | 17.4 | 14.4 | 37.8
COc1c(C(=O)NCCS)sc(Cl)c1Cl | 54.9 | 28.4 | 25.5 | 9.9 | 18.9 | 14.6 | 32.8 | 25.7 | 14.5 | 11.1 | 11.7 | 18.2
